In the supplement of paper PMC3334620:
Over roughly 33,000 sequences, “E-score (-0.5 to 0.5)” has its median near -0.011; the highest 2% begin near 0.28. This is one part of the list.

These sequences were tested against T1, Gcr1 (UniProt P07261) (assay: PBM E-score (8-mer binding enrichment) (E-score (-0.5 to 0.5)); higher = stronger / more preferred TF binding; most listed sequences are background and not binding sites). Details: protein concentration: 100 nM; construct: GST-full length.
T1 sequence: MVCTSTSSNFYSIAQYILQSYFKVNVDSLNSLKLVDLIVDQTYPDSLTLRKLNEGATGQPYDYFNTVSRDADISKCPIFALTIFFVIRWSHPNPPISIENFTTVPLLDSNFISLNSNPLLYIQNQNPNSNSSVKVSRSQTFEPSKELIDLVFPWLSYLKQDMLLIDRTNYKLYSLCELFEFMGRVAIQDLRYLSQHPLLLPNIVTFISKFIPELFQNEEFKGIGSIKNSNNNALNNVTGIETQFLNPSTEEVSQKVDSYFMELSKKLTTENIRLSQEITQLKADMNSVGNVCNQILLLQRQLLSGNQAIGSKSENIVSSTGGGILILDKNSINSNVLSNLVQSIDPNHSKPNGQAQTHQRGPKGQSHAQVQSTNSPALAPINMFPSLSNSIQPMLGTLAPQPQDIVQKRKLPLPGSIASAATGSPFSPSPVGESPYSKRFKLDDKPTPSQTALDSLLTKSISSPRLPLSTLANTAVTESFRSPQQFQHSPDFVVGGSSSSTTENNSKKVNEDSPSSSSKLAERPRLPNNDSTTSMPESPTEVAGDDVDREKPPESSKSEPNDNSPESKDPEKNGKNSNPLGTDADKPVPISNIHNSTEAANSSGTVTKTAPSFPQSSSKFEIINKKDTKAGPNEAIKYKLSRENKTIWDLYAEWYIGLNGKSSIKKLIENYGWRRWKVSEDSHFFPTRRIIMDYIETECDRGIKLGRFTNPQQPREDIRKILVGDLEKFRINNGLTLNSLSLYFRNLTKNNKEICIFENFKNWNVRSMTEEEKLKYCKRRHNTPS
Method: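 Universal 'all 10-mer' protein binding microarrays (Agilent AMADID 015681) probed with GST-tagged S. cerevisiae TFs (full-length or DBD) made by in vitro transcription/translation (PURExpress), about 100-200 nM. Bound TF was detected with fluorescent anti-GST. Each ungapped 8-mer (which stands for itself and its reverse complement) is scored by the PBM enrichment score (E-score), a modified Wilcoxon-Mann-Whitney statistic from -0.5 to +0.5, computed with the Universal PBM Analysis Suite. Scale: above 0.35 generally sequence-specific binding.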

Sequence	PBM E-score
AGGCTCGA	-0.0943
CCACTCTC	0.0767
ACAGTCGC	-0.208
ACGACACT	-0.19
AGCCCATC	0.104
ATTCTAGA	0.0876
ACGTCGTA	-0.2
CCGGTGGA	0.0304
AGTGATTG	-0.00936
ACGAGTGG	0.151
TGGCCCAA	-0.104
CCACGGCG	-0.00202
GTTAATAA	-0.0071
CTGTCGAC	-0.189
GCAAGACA	-0.216
CCAGGTCG	-0.0774
AACGGTCT	-0.233
AAACACTG	0.0484
TGGTGAAA	0.0688
CAGGTCAA	-0.173
GGACGCCC	0.441
CGATCATA	-0.0928
GAGGAAAA	-0.182
AAGGTAGG	-0.0262
CTTCAGTA	0.00082

Sequence	PBM E-score
CTGCAGCA	0.099
CGCCGCCC	0.2
CAGGCAAG	-0.136
ACGCGCTA	-0.0483
ATCTGCGC	0.0766
GCATGCAA	-0.017
TAAAACCA	0.0974
CTGTTAGA	0.198
CTTCCTAC	0.18
GGATAGCA	0.0491
GGTCAGGA	0.199
GGGTCTAC	-0.21
ACCTAAAT	0.175
CACGGATC	-0.0393
GCACCTGC	-0.0521
GAACCAGC	0.102
ATAGTGTG	0.106
CTAACTTA	0.0766
GACTACAC	-0.0357
AATGATAG	-0.054
ATCGTTTG	-0.0576
GCCAAAGC	-0.0657
ACCCTAAC	-0.00452
GTGAGTGA	-0.0517
ACTAAGCG	-0.0139

Sequence	PBM E-score
ATCGCAGA	-0.0688
CGTGCCCA	0.0649
TACGGAAA	0.0785
AACATCAG	0.0441
CACGGCAA	-0.0534
CACAGGGC	0.0271
AAAGCCAT	-0.34
CGCATTCC	0.248
ATCTCAGC	0.043
TACCGACA	0.0319
AAATGGTC	-0.0945
CCCCACGC	0.114
ATGAGCCA	-0.249
CGCCGCTC	0.0668
ATGATATC	-0.165
CAGACGGG	-0.257
AAATCCCG	-0.117
AGGATTGC	0.009
TGATTGCA	-0.0307
ACCCGCAC	-0.117
CAGGGATC	-0.0384
AGGACTCG	-0.212
GACAAATA	0.104
ACACAATC	-0.162
ATCGACCA	-0.0614

Sequence	PBM E-score
CGAGAATC	0.0803
CGTCTAGC	0.0268
AATAAGAC	-0.0603
AAGCCCGA	0.0664
CCCGCCTA	0.112
GGATTAAC	-0.214
AAGTTCGG	-0.0193
AAGAGATG	-0.143
CTGGACCA	-0.134
CACTATTC	0.0919
AAGGATGA	-0.116
CATGCACG	-0.314
ACGTTGAA	0.11
ATGCAACC	0.0732
GCTACAAA	0.165
TGTCAGAA	-0.176
AGAATTCC	0.164
AGACGTTA	-0.0329
GACCTTGA	-0.0333
AAACATCA	-0.0583
AGGTAGGG	0.0437
ACTTCGAG	0.196
ATCGGCTC	0.00312
ACACTTGG	-0.091
GGTGCCAA	0.27

Sequence	PBM E-score
GATAGTTA	0.041
AATTCGAA	0.0943
CTGGTCGA	-0.3
AGGAGCAA	-0.132
CATGGATC	-0.14
AGTATGCC	-0.208
CTAGCTCA	-0.115
CCGCAAAG	-0.0268
GCCCGATA	0.0461
CACGTGAG	-0.123
GCACATAC	-0.11
ACGTCTCA	-0.301
ACGGTTTC	-0.18
GAAGGCAA	-0.00722
AAGATATG	0.0193
ACCTAGCA	-0.0493
CCAAAGGC	-0.185
TCCGAGCA	0.268
ACAGACGA	0.00488
AATGCGAT	0.0438
AATCCAGG	0.182
CGTAGTAA	-0.114
AGGGCCAA	-0.136
GAGTGGAA	0.316
CCGTCACG	-0.00852

Sequence	PBM E-score
ACGTCAGC	-0.0491
GCTATGAC	-0.116
AGCCAATC	-0.0617
CTGAGTTA	-0.23
AACCGCGG	-0.131
GCCTGCCC	-0.227
TATTATGA	0.148
TGGTACAA	0.034
ACTAATCC	0.193
ATTGGATC	0.193
CGGGAGGC	0.235
TAGGCATA	-0.0772
GCATTGGC	-0.187
GCAATGTA	-0.0536
ACCCCTGC	-0.205
CGAATTTA	0.037
CACTTTGA	0.0238
GAGGGCCC	0.0717
AAGCGCCT	0.0782
AGCCGGCA	0.102
ATGATTTG	-0.0178
CATGTTAG	-5e-05
ACGCGTGC	0.105
AGGGTGGG	0.207
ACCAAAGC	-0.0876

Sequence	PBM E-score
AGCCAACA	0.266
ATCTCAGG	0.101
AGAGCGAT	-0.198
ATTTGTAG	0.0518
ATCACGTA	-0.017
GCCACACC	0.035
CCTACAAC	0.0249
GCACGTCA	-0.218
AAGCCACG	0.106
AGCGCGAG	-0.138
CCATACAC	0.192
AACGGCTG	-0.12
AAATTGGC	0.0713
ACAAGATG	0.294
ACAAGGAG	0.0618
ATTCGCAG	0.151
AAGTTAGA	0.173
TAATCCGA	0.0297
CTTAAAAG	-0.0437
CGAGATAG	-0.136
ACCAGAAA	0.0905
AGGCTCAT	-0.23
